The labels stand for the following.
T1: RBFOX1 RRM (Homo sapiens, UniProt Q9NWB1 109-208)
T1 sequence: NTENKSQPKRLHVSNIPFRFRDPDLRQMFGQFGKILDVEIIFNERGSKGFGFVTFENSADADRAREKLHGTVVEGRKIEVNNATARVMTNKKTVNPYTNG

B1: ACAAAGG (DNA:RNA)
RNA: GGGAGACCGGAAUUCAGAUUGUCCACAAAGGUUAAAUCCCGUCGUAGCCACCA
DNA 1: CAATCTGAATTCCGGTCTCCC
DNA 2: TGGTGGCTACGACGGGATT
B2: CCGGUCG (DNA:RNA)
RNA: B1 RNA with A25C, A27G, A28G, A29U, G30C
DNA 1: CAATCTGAATTCCGGTCTCCC
DNA 2: TGGTGGCTACGACGGGATT
B3: ACAAUGA (DNA:RNA)
RNA: B1 RNA with A29U, G31A
DNA 1: CAATCTGAATTCCGGTCTCCC
DNA 2: TGGTGGCTACGACGGGATT
B4: GCUCAUA (DNA:RNA)
RNA: B1 RNA with A25G, A27U, A28C, G30U, G31A
DNA 1: CAATCTGAATTCCGGTCTCCC
DNA 2: TGGTGGCTACGACGGGATT
B5: AUUUAAA (DNA:RNA)
RNA: B1 RNA with C26U, A27U, A28U, G30A, G31A
DNA 1: CAATCTGAATTCCGGTCTCCC
DNA 2: TGGTGGCTACGACGGGATT
B6: ACGUCCC (DNA:RNA)
RNA: B1 RNA with A27G, A28U, A29C, G30C, G31C
DNA 1: CAATCTGAATTCCGGTCTCCC
DNA 2: TGGTGGCTACGACGGGATT
B7: AAAGAUG (DNA:RNA)
RNA: B1 RNA with C26A, A28G, G30U
DNA 1: CAATCTGAATTCCGGTCTCCC
DNA 2: TGGTGGCTACGACGGGATT
B8: GGAGUUC (DNA:RNA)
RNA: B1 RNA with A25G, C26G, A28G, A29U, G30U, G31C
DNA 1: CAATCTGAATTCCGGTCTCCC
DNA 2: TGGTGGCTACGACGGGATT
B9: GGCCCGC (DNA:RNA)
RNA: B1 RNA with A25G, C26G, A27C, A28C, A29C, G31C
DNA 1: CAATCTGAATTCCGGTCTCCC
DNA 2: TGGTGGCTACGACGGGATT

Where a chain is given by its changes, count along the chain named. This is one part of the list.

The experiment concerns the target T1, RBFOX1 RRM. The experiment can be described thus: EMSA; HiTS-Eq, 1 nM pool, 10 min; buffer printed only for the single-RNA assays: 10 mM Tris pH 7.5, 150 mM NaCl, 3.4 mM EDTA, 0.001% NP-40, 30 C. The settings on record: tags: His6 N-terminal (pET28a); label: 5' 32P. In a few lines: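 Purified RbFox RRM (wild type or mutant) was equilibrated for 10 min in 50 µL with 1 nM of a 5′-radiolabelled pool of RNA with 7 randomized nucleotides, its flanks annealed to DNA oligonucleotides, across increasing protein concentrations. Free RNA was separated by 8% native PAGE, excised, reverse-transcribed, PCR-barcoded and sequenced on an Illumina HiSeq 2500. Relative association constants came from read-count changes of each variant against the control reaction, normalised to the cognate motif.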
On to B1, for which the binding signal was 0.00517 KA relative to UGCAUGU.

With B2, the binding signal is 0.00821 KA relative to UGCAUGU.

In the case of B3, the binding signal was 0.00366 KA relative to UGCAUGU.

On to B4, for which the binding signal was 0.00411 KA relative to UGCAUGU.

With B5, the binding signal is 0.00233 KA relative to UGCAUGU.

As for B6, the binding signal was 0.00396 KA relative to UGCAUGU.

In the case of B7, the binding signal is 0.00956 KA relative to UGCAUGU.

In the case of B8, the binding signal was 0.025 KA relative to UGCAUGU.

In the case of B9, the binding signal is 0.0121 KA relative to UGCAUGU.

For the origin of these results see PMC9911399, “Two distinct binding modes provide the RNA-binding protein RbFox with extraordinary sequence specificity”.
